Source: the supplement of paper PMC4604168 (melanoma cell lines)
This is one part of the list. Most values come without repeats; read them as rough.

Columns and labels:
Experiment in all cases: cell count relative to DMSO control; melanoma cells; higher = more viable cells
Details in all cases: library dose: low library concentration; 72 h
MZ2-MEL = test system: MZ2-MEL
MeWo = test system: MeWo
RPMI7951 = test system: RPMI7951
RVH-421 = test system: RVH-421
SkMel28 = test system: SkMel28
SkMel2 = test system: SkMel2
SkMel30 = test system: SkMel30
UACC62 = test system: UACC62
SkMel5 = test system: SkMel5
UACC257 = test system: UACC257
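Further: cell number obtained by counting DAPI-stained nuclei in high-throughput microscope images with image analysis software, screen run in 1,536-well plates.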

SMILES	cell count (MZ2-MEL) [%]	cell count (MeWo) [%]	cell count (RPMI7951) [%]	cell count (RVH-421) [%]	cell count (SkMel28) [%]	cell count (SkMel2) [%]	cell count (SkMel30) [%]	cell count (UACC62) [%]	cell count (SkMel5) [%]	cell count (UACC257) [%]
COc1ccc(C2=N[C@@H](c3ccc(Cl)cc3)[C@@H](c3ccc(Cl)cc3)N2C(=O)N2CCNC(=O)C2)c(OC(C)C)c1 [Nutlin-3] + CCN(CC)CCNC(=O)c1c(C)[nH]c(/C=C2\C(=O)Nc3ccc(F)cc32)c1C [sunitinib] (first compound 0.1 µM, partner dose 0.4 µM)	101	88.1	95.4	92.5	85.3	113	80.2	105	–	–
CC(C)C[C@H](NC(=O)[C@H](Cc1ccccc1)NC(=O)c1cnccn1)B(O)O [Bortezomib] + CC1(C)NC(=O)N(c2ccc([N+](=O)[O-])c(C(F)(F)F)c2)C1=O [nilutamide] (first compound 0.001 µM, partner dose 1 µM)	–	93.3	78.5	56.1	116	95.5	129	79.1	123	85.9
Cc1cn(-c2cc(NC(=O)c3ccc(C)c(Nc4nccc(-c5cccnc5)n4)c3)cc(C(F)(F)F)c2)cn1 [nilotinib] + CO[C@H]1C[C@@H]2CC[C@@H](C)[C@@](O)(O2)C(=O)C(=O)N2CCCC[C@H]2C(=O)O[C@H]([C@H](C)C[C@@H]2CC[C@@H](OCCO)[C@H](OC)C2)CC(=O)[C@H](C)/C=C(\C)[C@@H](O)[C@@H](OC)C(=O)[C@H](C)C[C@H](C)/C=C/C=C/C=C/1C [everolimus] (first compound 0.2 µM, partner dose 0.02 µM)	83.8	71.9	73.2	90.5	42.1	–	66.7	68.8	–	–
CC(C)C[C@H](NC(=O)[C@H](Cc1ccccc1)NC(=O)c1cnccn1)B(O)O [Bortezomib] + Clc1ccc(Nc2nnc(Cc3ccncc3)c3ccccc23)cc1 [vatalanib] (first compound 0.001 µM, partner dose 2 µM)	–	75.1	62.3	60	100	113	71.3	75.1	–	–
COc1ccc(C2=N[C@@H](c3ccc(Cl)cc3)[C@@H](c3ccc(Cl)cc3)N2C(=O)N2CCNC(=O)C2)c(OC(C)C)c1 [Nutlin-3] + Nc1nc(F)nc2c1ncn2[C@@H]1O[C@H](CO)[C@@H](O)[C@@H]1O [fludarabine] (first compound 0.1 µM, partner dose 0.2 µM)	97.1	46.5	106	88.2	84.1	11.2	25.6	62	–	–
COc1ccc(C2=N[C@@H](c3ccc(Cl)cc3)[C@@H](c3ccc(Cl)cc3)N2C(=O)N2CCNC(=O)C2)c(OC(C)C)c1 [Nutlin-3] + Cn1c(=O)n(-c2ccc(C(C)(C)C#N)cc2)c2c3cc(-c4cnc5ccccc5c4)ccc3ncc21 [NVP-BEZ235] (first compound 0.1 µM, partner dose 0.004 µM)	102	89.1	100	118	82	90.4	89.4	81.3	–	–
Cn1c(=O)n(-c2ccc(C(C)(C)C#N)cc2)c2c3cc(-c4cnc5ccccc5c4)ccc3ncc21 + C[C@]1(c2nc3c(C(N)=O)cccc3[nH]2)CCCN1 [Veliparib] (first compound 0.004 µM, partner dose 1.4 µM)	97	79.5	73.7	102	79.6	85.2	80.5	82.2	–	–
Cn1c(=O)n(-c2ccc(C(C)(C)C#N)cc2)c2c3cc(-c4cnc5ccccc5c4)ccc3ncc21 + CO[C@H]1C[C@@H]2CC[C@@H](C)[C@@](O)(O2)C(=O)C(=O)N2CCCC[C@H]2C(=O)O[C@H]([C@H](C)C[C@@H]2CC[C@@H](OCCO)[C@H](OC)C2)CC(=O)[C@H](C)/C=C(\C)[C@@H](O)[C@@H](OC)C(=O)[C@H](C)C[C@H](C)/C=C/C=C/C=C/1C [everolimus] (first compound 0.004 µM, partner dose 0.02 µM)	45.7	44.6	65.6	58.3	34.2	–	44.9	39.4	–	–
Cc1cc(Nc2cc(N3CCN(C)CC3)nc(/C=C/c3ccccc3)n2)n[nH]1 + C=C(c1ccc(C(=O)O)cc1)c1cc2c(cc1C)C(C)(C)CCC2(C)C [Bexarotene] (first compound 0.04 µM, partner dose 2 µM)	–	97.1	81.6	109	87.9	94.2	90.3	102	–	–
Cc1cn(-c2cc(NC(=O)c3ccc(C)c(Nc4nccc(-c5cccnc5)n4)c3)cc(C(F)(F)F)c2)cn1 [nilotinib] + CCc1ccc(CCOc2ccc(CC3SC(=O)NC3=O)cc2)nc1 [pioglitazone] (first compound 0.2 µM, partner dose 2 µM)	–	120	90.7	124	102	86.5	91.6	89.1	101	101
Cc1cn(-c2cc(NC(=O)c3ccc(C)c(Nc4nccc(-c5cccnc5)n4)c3)cc(C(F)(F)F)c2)cn1 [nilotinib] + C[C@@H](N)c1ccc(C(=O)Nc2ccnc3[nH]ccc23)cc1 [RKI983] (first compound 0.2 µM, partner dose 0.4 µM)	66.4	–	79.8	54.3	74.7	86.8	71.4	92.1	–	–
Cc1cc(Nc2cc(N3CCN(C)CC3)nc(/C=C/c3ccccc3)n2)n[nH]1 + COc1cc2ncnc(Nc3ccc(Oc4ccccc4)cc3)c2cc1OC [SrcI1] (first compound 0.04 µM, partner dose 2 µM)	–	85.4	110	85.9	81.5	98.4	109	96.8	93.5	105
COc1ccc(C2=N[C@@H](c3ccc(Cl)cc3)[C@@H](c3ccc(Cl)cc3)N2C(=O)N2CCNC(=O)C2)c(OC(C)C)c1 [Nutlin-3] + COCC[n+]1c2c(n(Cc3cnccn3)c1C)C(=O)c1ccccc1C2=O [YM155] (first compound 0.1 µM, partner dose 0.0004 µM)	66.5	104	77.8	82.2	115	–	100	90.2	–	–
Cc1cc(Nc2cc(N3CCN(C)CC3)nc(/C=C/c3ccccc3)n2)n[nH]1 + O=C(O)c1ccc2c(c1)nc(Nc1cccc(Cl)c1)c1ccncc12 [CX4945] (first compound 0.04 µM, partner dose 0.4 µM)	93.5	88.1	83.5	88.4	99.4	0.273	92.4	77.4	–	–
Cn1c(=O)n(-c2ccc(C(C)(C)C#N)cc2)c2c3cc(-c4cnc5ccccc5c4)ccc3ncc21 + CC(C)(C)c1cnc(CSc2cnc(NC(=O)C3CCNCC3)s2)o1 [SNS-032] (first compound 0.004 µM, partner dose 0.01 µM)	–	85.2	95.6	92.1	75.6	–	98.6	95.2	106	96.3
Cc1cn(-c2cc(NC(=O)c3ccc(C)c(Nc4nccc(-c5cccnc5)n4)c3)cc(C(F)(F)F)c2)cn1 [nilotinib] + CCCS(=O)(=O)Nc1ccc(F)c(C(=O)c2c[nH]c3ncc(Cl)cc23)c1F [PLX4720] (first compound 0.2 µM, partner dose 0.08 µM)	–	93.3	85	79.9	74.8	–	98.5	73	–	–
Cn1c(=O)n(-c2ccc(C(C)(C)C#N)cc2)c2c3cc(-c4cnc5ccccc5c4)ccc3ncc21 + O=C(O)[C@@H]1[O][Sb](=[O])([O][Sb]2(=[O])[O][C@H]([C@H](O)CO)[C@H](O)[C@H](C(=O)O)[O]2)[O][C@H]([C@H](O)CO)[C@@H]1O [stibogluconate] (first compound 0.004 µM, partner dose 2 µM)	–	101	88.6	112	102	89.4	93.6	107	–	–
Cn1c(=O)n(-c2ccc(C(C)(C)C#N)cc2)c2c3cc(-c4cnc5ccccc5c4)ccc3ncc21 + CN(NC(=O)CC(=O)NN(C)C(=S)c1ccccc1)C(=S)c1ccccc1 [STA4783] (first compound 0.004 µM, partner dose 0.006 µM)	–	71.3	84.7	95.9	76.7	–	73.6	79.9	76.2	92
Cc1cc(Nc2cc(N3CCN(C)CC3)nc(/C=C/c3ccccc3)n2)n[nH]1 + Cn1c(Nc2ccc(C(F)(F)F)cc2)nc2cc(Oc3ccnc(-c4ncc(C(F)(F)F)[nH]4)c3)ccc21 [CHIR265] (first compound 0.04 µM, partner dose 0.08 µM)	–	69.6	59.9	72.9	55.7	–	56.1	53.4	–	–
CC(C)C[C@H](NC(=O)[C@H](Cc1ccccc1)NC(=O)c1cnccn1)B(O)O [Bortezomib] + Cn1cncc1[C@@](N)(c1ccc(Cl)cc1)c1ccc2c(c1)c(-c1cccc(Cl)c1)cc(=O)n2C [tipifarnib] (first compound 0.001 µM, partner dose 0.01 µM)	–	86.4	46.8	50.2	80.5	–	88.5	72.7	95.2	83.9
CC(C)C[C@H](NC(=O)[C@H](Cc1ccccc1)NC(=O)c1cnccn1)B(O)O [Bortezomib] + CO[C@H]1C[C@@H]2CC[C@@H](C)[C@@](O)(O2)C(=O)C(=O)N2CCCC[C@H]2C(=O)O[C@H]([C@H](C)C[C@@H]2CC[C@@H](OCCO)[C@H](OC)C2)CC(=O)[C@H](C)/C=C(\C)[C@@H](O)[C@@H](OC)C(=O)[C@H](C)C[C@H](C)/C=C/C=C/C=C/1C [everolimus] (first compound 0.001 µM, partner dose 0.02 µM)	59.6	56	59	41.3	46.4	–	49.9	49.2	–	–
Cn1c(=O)n(-c2ccc(C(C)(C)C#N)cc2)c2c3cc(-c4cnc5ccccc5c4)ccc3ncc21 + CNC(=O)c1cc(Oc2ccc(NC(=O)Nc3ccc(Cl)c(C(F)(F)F)c3)cc2)ccn1 [sorafenib] (first compound 0.004 µM, partner dose 0.4 µM)	–	83.7	89.3	80.3	107	83.5	88.5	104	–	–
Cc1cc(Nc2cc(N3CCN(C)CC3)nc(/C=C/c3ccccc3)n2)n[nH]1 + CO[C@H]1C[C@@H]2CC[C@@H](C)[C@@](O)(O2)C(=O)C(=O)N2CCCC[C@H]2C(=O)O[C@H]([C@H](C)C[C@@H]2CC[C@@H](OCCO)[C@H](OC)C2)CC(=O)[C@H](C)/C=C(\C)[C@@H](O)[C@@H](OC)C(=O)[C@H](C)C[C@H](C)/C=C/C=C/C=C/1C [everolimus] (first compound 0.04 µM, partner dose 0.02 µM)	69.2	61.2	74.3	84.3	53.4	–	63.7	66.4	–	–
Cn1c(=O)n(-c2ccc(C(C)(C)C#N)cc2)c2c3cc(-c4cnc5ccccc5c4)ccc3ncc21 + COc1ccc(-c2ccc3c(N4CCOCC4)nc(N4C[C@@H](C)O[C@@H](C)C4)nc3n2)cc1CO [KU0063794] (first compound 0.004 µM, partner dose 0.02 µM)	–	88.9	94.3	98.2	60.9	76.3	88.2	91.7	105	79
Cc1cn(-c2cc(NC(=O)c3ccc(C)c(Nc4nccc(-c5cccnc5)n4)c3)cc(C(F)(F)F)c2)cn1 [nilotinib] + CNC(=O)c1cc(Oc2ccc(NC(=O)Nc3ccc(Cl)c(C(F)(F)F)c3)cc2)ccn1 [sorafenib] (first compound 0.2 µM, partner dose 0.4 µM)	101	94.4	83.7	118	–	91.2	104	99.4	–	–
COc1ccc(C2=N[C@@H](c3ccc(Cl)cc3)[C@@H](c3ccc(Cl)cc3)N2C(=O)N2CCNC(=O)C2)c(OC(C)C)c1 [Nutlin-3] + CN1CCN(c2ccc3nc(-c4c(N)c5c(F)cccc5[nH]c4=O)[nH]c3c2)CC1 [Dovitinib] (first compound 0.1 µM, partner dose 0.1 µM)	96.7	102	114	87.1	92.4	101	99.7	83.2	–	–
COc1ccc(C2=N[C@@H](c3ccc(Cl)cc3)[C@@H](c3ccc(Cl)cc3)N2C(=O)N2CCNC(=O)C2)c(OC(C)C)c1 [Nutlin-3] + CCCCCCCCCCCC1=C(O)C(=O)C=C(O)C1=O [Embelin] (first compound 0.1 µM, partner dose 1.2 µM)	–	115	117	89.7	96.5	92.5	113	92.4	105	123
Cc1cc(Nc2cc(N3CCN(C)CC3)nc(/C=C/c3ccccc3)n2)n[nH]1 + COCC[n+]1c2c(n(Cc3cnccn3)c1C)C(=O)c1ccccc1C2=O [YM155] (first compound 0.04 µM, partner dose 0.0004 µM)	56.6	98	76.8	84.7	111	89.1	91.4	89.7	–	–
